Some of the results follow.
Assays:
Test in all cases: glycan array binding signal (z-score within array); higher = stronger binding
Settings in all cases: glycan notation: IUPAC condensed, linker removed
[1] = biological target: Neu5Ac(a2-3)Gal(b1-4)GlcNAc6S
How it was run: (§1)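 The binding signal is a Z-score computed within each array and averaged over linkers. Arrays of the same protein sequence at different concentrations or buffers were also averaged together. Data originate from 3228 arrays in the Consortium for Functional Glycomics database, kept only where the protein sequence was available.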

[2] = biological target: Neu5Ac(a2-3)Gal(b1-4)[Fuc(a1-3)]GlcNAc
How it was run: as §1

[3] = biological target: Neu5Ac(a2-3)Gal(b1-4)[Fuc(a1-3)]GlcNAc(b1-3)Gal
How it was run: as §1

[4] = biological target: Neu5Ac(a2-3)Gal(b1-4)[Fuc(a1-3)]GlcNAc(b1-3)Gal(b1-4)GlcNAc
How it was run: as §1

[5] = biological target: Neu5Ac(a2-3)Gal(b1-4)[Fuc(a1-3)]GlcNAc(b1-3)Gal(b1-4)[Fuc(a1-3)]GlcNAc(b1-3)Gal(b1-4)[Fuc(a1-3)]GlcNAc
How it was run: as §1

[6] = biological target: Neu5Ac(a2-3)Gal(b1-4)[Fuc(a1-3)]GlcNAc6S
How it was run: as §1

[7] = biological target: Neu5Ac(a2-3)Gal6S(b1-4)GlcNAc
How it was run: as §1

[8] = biological target: Neu5Ac(a2-3)Gal6S(b1-4)[Fuc(a1-3)]GlcNAc
How it was run: as §1

Neu5Ac(a2-3)GalNAc = biological target: Neu5Ac(a2-3)GalNAc
How it was run: as §1

[9] = biological target: Neu5Ac(a2-3)GalNAc(b1-4)GlcNAc
How it was run: as §1

[10] = biological target: Neu5Ac(a2-3)[GalNAc(b1-4)]Gal(b1-4)Glc
How it was run: as §1

[11] = biological target: Neu5Ac(a2-3)[GalNAc(b1-4)]Gal(b1-4)GlcNAc
How it was run: as §1

[12] = biological target: Neu5Ac(a2-3)[Neu5Ac(a2-6)]GalNAc
How it was run: as §1

[13] = biological target: Neu5Ac(a2-6)Gal(b1-4)GlcNAc
How it was run: as §1

[14] = biological target: Neu5Ac(a2-6)Gal(b1-4)GlcNAc(b1-2)Man(a1-3)[Neu5Ac(a2-6)Gal(b1-4)GlcNAc(b1-2)Man(a1-6)]Man(b1-4)GlcNAc(b1-4)GlcNAc
How it was run: as §1

[15] = biological target: Neu5Ac(a2-6)Gal(b1-4)GlcNAc(b1-3)Gal(b1-4)GlcNAc
How it was run: as §1

[16] = biological target: Neu5Ac(a2-6)Gal(b1-4)GlcNAc(b1-3)Gal(b1-4)[Fuc(a1-3)]GlcNAc(b1-3)Gal(b1-4)[Fuc(a1-3)]GlcNAc
How it was run: as §1

[17] = biological target: Neu5Ac(a2-6)Gal(b1-4)GlcNAc6S
How it was run: as §1

Neu5Ac(a2-6)GalNAc = biological target: Neu5Ac(a2-6)GalNAc
How it was run: as §1

[18] = biological target: Neu5Ac(a2-6)GalNAc(b1-4)GlcNAc
How it was run: as §1

Neu5Ac(a2-8)Neu5Ac = biological target: Neu5Ac(a2-8)Neu5Ac
How it was run: as §1

[19] = biological target: Neu5Ac(a2-8)Neu5Ac(a2-3)Gal(b1-4)Glc
How it was run: as §1

[20] = biological target: Neu5Ac(a2-8)Neu5Ac(a2-3)[GalNAc(b1-4)]Gal(b1-4)Glc
How it was run: as §1

[21] = biological target: Neu5Ac(a2-8)Neu5Ac(a2-8)Neu5Ac
How it was run: as §1

[22] = biological target: Neu5Ac(a2-8)Neu5Ac(a2-8)Neu5Ac(a2-3)Gal(b1-4)Glc
How it was run: as §1

[23] = biological target: Neu5Ac(a2-8)Neu5Ac(a2-8)Neu5Ac(a2-3)[GalNAc(b1-4)]Gal(b1-4)Glc
How it was run: as §1

[24] = biological target: Neu5Ac(a2-8)Neu5Ac(a2-8)Neu5Ac(a2-8)Neu5Ac(a2-3)[GalNAc(b1-4)]Gal(b1-4)Glc
How it was run: as §1

[25] = biological target: Neu5Ac9Ac(a2-6)Gal(b1-4)GlcNAc
How it was run: as §1

[26] = biological target: Neu5Gc(a2-3)Gal(b1-3)GlcNAc
How it was run: as §1

[27] = biological target: Neu5Gc(a2-3)Gal(b1-3)[Fuc(a1-4)]GlcNAc
How it was run: as §1

Neu5Gc(a2-3)Gal(b1-4)Glc = biological target: Neu5Gc(a2-3)Gal(b1-4)Glc
How it was run: as §1

[28] = biological target: Neu5Gc(a2-3)Gal(b1-4)GlcNAc
How it was run: as §1

[29] = biological target: Neu5Gc(a2-3)Gal(b1-4)[Fuc(a1-4)]GlcNAc
How it was run: as §1

[30] = biological target: Neu5Gc(a2-6)Gal(b1-4)GlcNAc
How it was run: as §1

Neu5Gc(a2-6)GalNAc = biological target: Neu5Gc(a2-6)GalNAc
How it was run: as §1

B1: chitinase 3-like protein 2 (Homo sapiens) (protein)
chain: YKLVCYFTQWSQDRQEPGKFTPENIDPFLCSHLIYSFASIENNKVIIKDKSEVMLYQTINSLKTKNPKLKILLSIGGYLFGSKGFHPMVDSSTSRLEFINSIILFLRNHNFDGLDVSWIYPDQKENTHFTVLIHELAEAFQKDFTKSTKERLLLTAGVSAGRQMIDNSYQVEKLAKDLDFINLLSFDFHGSWEKPLITGHNSPLSKGWQDRGPSSYYNVEYAVGYWIHKGMPSEKVVMGIPTYGHSFTLASAETTVGAPASGPGAAGPITESSGFLAYYEICQFLKGAKITRLQDQQVPYAVKGNQWVGYDDVKSMETKVQFLKNLNLGGAMIWSIDMDDFTGKSCNQGPYPLVQAVKRSLGSL
Q: Which “glycan array binding signal (z-score)” value [1] does the source give for B1 here?
A: Its value is -0.216.

Q: What about the “glycan array binding signal (z-score)” value [2] of the same binder?
A: Its value is -0.257.

Q: What about the “glycan array binding signal (z-score)” value [3] of the same binder?
A: Its value is 0.173.

Q: What about the “glycan array binding signal (z-score)” value [4] of the same binder?
A: Its value is -0.288.

Q: What about the “glycan array binding signal (z-score)” value [5] of the same binder?
A: The value was 0.051.

Q: What about the “glycan array binding signal (z-score)” value [6] of the same binder?
A: Its value is -0.283.

Q: What about the “glycan array binding signal (z-score)” value [7] of the same binder?
A: The value was 0.001.

Q: And the “glycan array binding signal (z-score)” value [8]?
A: Its value is -0.258.

Q: What about the “glycan array binding signal (z-score)” value (Neu5Ac(a2-3)GalNAc) of the same binder?
A: The value was -0.216.

Q: What about the “glycan array binding signal (z-score)” value [9] of the same binder?
A: The value was -0.196.

Q: What about the “glycan array binding signal (z-score)” value [10] of the same binder?
A: The value was -0.234.

Q: What about the “glycan array binding signal (z-score)” value [11] of the same binder?
A: The value was -0.236.

Q: What about the “glycan array binding signal (z-score)” value [12] of the same binder?
A: Its value is -0.255.

Q: What about the “glycan array binding signal (z-score)” value [13] of the same binder?
A: Its value is -0.232.

Q: What about the “glycan array binding signal (z-score)” value [14] of the same binder?
A: Its value is 1.03.

Q: What about the “glycan array binding signal (z-score)” value [15] of the same binder?
A: The value was -0.255.

Q: And the “glycan array binding signal (z-score)” value [16]?
A: The value was -0.258.

Q: What about the “glycan array binding signal (z-score)” value [17] of the same binder?
A: Its value is -0.281.

Q: What about the “glycan array binding signal (z-score)” value (Neu5Ac(a2-6)GalNAc) of the same binder?
A: The value was -0.27.

Q: What about the “glycan array binding signal (z-score)” value [18] of the same binder?
A: The value was -0.176.

Q: And the “glycan array binding signal (z-score)” value (Neu5Ac(a2-8)Neu5Ac)?
A: The value was -0.273.

Q: What about the “glycan array binding signal (z-score)” value [19] of the same binder?
A: The value was -0.281.

Q: And the “glycan array binding signal (z-score)” value [20]?
A: Its value is -0.006.

Q: What about the “glycan array binding signal (z-score)” value [21] of the same binder?
A: The value was -0.236.

Q: And the “glycan array binding signal (z-score)” value [22]?
A: Its value is 0.008.

Q: And the “glycan array binding signal (z-score)” value [23]?
A: The value was -0.204.

Q: What about the “glycan array binding signal (z-score)” value [24] of the same binder?
A: The value was 1.51.

Q: What about the “glycan array binding signal (z-score)” value [25] of the same binder?
A: The value was -0.229.

Q: What about the “glycan array binding signal (z-score)” value [26] of the same binder?
A: Its value is -0.254.

Q: And the “glycan array binding signal (z-score)” value [27]?
A: The value was -0.268.

Q: What about the “glycan array binding signal (z-score)” value (Neu5Gc(a2-3)Gal(b1-4)Glc) of the same binder?
A: Its value is -0.258.

Q: And the “glycan array binding signal (z-score)” value [28]?
A: The value was 0.093.

Q: What about the “glycan array binding signal (z-score)” value [29] of the same binder?
A: The value was -0.279.

Q: What about the “glycan array binding signal (z-score)” value [30] of the same binder?
A: The value was 0.002.

Q: What about the “glycan array binding signal (z-score)” value (Neu5Gc(a2-6)GalNAc) of the same binder?
A: Its value is -0.217.

From the supplement of paper PMC8728848
